According to PMC9911399, “Two distinct binding modes provide the RNA-binding protein RbFox with extraordinary sequence specificity”:
Numbering of substitutions follows the chain as printed; changes in the protein carry UniProt numbers. The list shows a part of the results.

B1: CUUCAUA (DNA:RNA)
RNA: GGGAGACCGGAAUUCAGAUUGUCCCUUCAUAUUAAAUCCCGUCGUAGCCACCA
DNA 1: CAATCTGAATTCCGGTCTCCC
DNA 2: TGGTGGCTACGACGGGATT
B2: CAUCCCC (DNA:RNA)
RNA: B1 RNA with U26A, A29C, U30C, A31C
DNA 1: CAATCTGAATTCCGGTCTCCC
DNA 2: TGGTGGCTACGACGGGATT
B3: GGACGUG (DNA:RNA)
RNA: B1 RNA with C25G, U26G, U27A, A29G, A31G
DNA 1: CAATCTGAATTCCGGTCTCCC
DNA 2: TGGTGGCTACGACGGGATT
B4: CGUAGUG (DNA:RNA)
RNA: B1 RNA with U26G, C28A, A29G, A31G
DNA 1: CAATCTGAATTCCGGTCTCCC
DNA 2: TGGTGGCTACGACGGGATT
B5: UACAUGU (DNA:RNA)
RNA: GGGAGACCGGAAUUCAGAUUGUCCUACAUGUUUAAAUCCCGUCGUAGCCACCA
DNA 1: CAATCTGAATTCCGGTCTCCC
DNA 2: TGGTGGCTACGACGGGATT
B6: UUGGUUC (DNA:RNA)
RNA: B1 RNA with C25U, U27G, C28G, A29U, A31C
DNA 1: CAATCTGAATTCCGGTCTCCC
DNA 2: TGGTGGCTACGACGGGATT
B7: AGGUCUU (DNA:RNA)
RNA: B1 RNA with C25A, U26G, U27G, C28U, A29C, A31U
DNA 1: CAATCTGAATTCCGGTCTCCC
DNA 2: TGGTGGCTACGACGGGATT
B8: AUGAUAU (DNA:RNA)
RNA: B5 RNA with U25A, A26U, C27G, G30A
DNA 1: CAATCTGAATTCCGGTCTCCC
DNA 2: TGGTGGCTACGACGGGATT
B9: UUCCAAG (DNA:RNA)
RNA: B1 RNA with C25U, U27C, U30A, A31G
DNA 1: CAATCTGAATTCCGGTCTCCC
DNA 2: TGGTGGCTACGACGGGATT
B10: AGCAGCA (DNA:RNA)
RNA: B5 RNA with U25A, A26G, U29G, G30C, U31A
DNA 1: CAATCTGAATTCCGGTCTCCC
DNA 2: TGGTGGCTACGACGGGATT
B11: UGCCUGC (DNA:RNA)
RNA: B5 RNA with A26G, A28C, U31C
DNA 1: CAATCTGAATTCCGGTCTCCC
DNA 2: TGGTGGCTACGACGGGATT
B12: UGAAGUU (DNA:RNA)
RNA: B5 RNA with A26G, C27A, U29G, G30U
DNA 1: CAATCTGAATTCCGGTCTCCC
DNA 2: TGGTGGCTACGACGGGATT
B13: CACCACU (DNA:RNA)
RNA: B1 RNA with U26A, U27C, U30C, A31U
DNA 1: CAATCTGAATTCCGGTCTCCC
DNA 2: TGGTGGCTACGACGGGATT
B14: CCCGAGU (DNA:RNA)
RNA: B5 RNA with U25C, A26C, A28G, U29A
DNA 1: CAATCTGAATTCCGGTCTCCC
DNA 2: TGGTGGCTACGACGGGATT
B15: CUGCUGC (DNA:RNA)
RNA: B1 RNA with U27G, A29U, U30G, A31C
DNA 1: CAATCTGAATTCCGGTCTCCC
DNA 2: TGGTGGCTACGACGGGATT
B16: CUGGGGA (DNA:RNA)
RNA: B1 RNA with U27G, C28G, A29G, U30G
DNA 1: CAATCTGAATTCCGGTCTCCC
DNA 2: TGGTGGCTACGACGGGATT
B17: UAAUCUA (DNA:RNA)
RNA: B1 RNA with C25U, U26A, U27A, C28U, A29C
DNA 1: CAATCTGAATTCCGGTCTCCC
DNA 2: TGGTGGCTACGACGGGATT
B18: CAUCAGA (DNA:RNA)
RNA: B1 RNA with U26A, U30G
DNA 1: CAATCTGAATTCCGGTCTCCC
DNA 2: TGGTGGCTACGACGGGATT
B19: GGUGCAG (DNA:RNA)
RNA: B1 RNA with C25G, U26G, C28G, A29C, U30A, A31G
DNA 1: CAATCTGAATTCCGGTCTCCC
DNA 2: TGGTGGCTACGACGGGATT
B20: CGGAGAA (DNA:RNA)
RNA: B1 RNA with U26G, U27G, C28A, A29G, U30A
DNA 1: CAATCTGAATTCCGGTCTCCC
DNA 2: TGGTGGCTACGACGGGATT

Each binder was assayed against T1, RBFOX1 RRM (Homo sapiens, UniProt Q9NWB1 109-208) (assay: EMSA; HiTS-Eq, 1 nM pool, 10 min; buffer printed only for the single-RNA assays: 10 mM Tris pH 7.5, 150 mM NaCl, 3.4 mM EDTA, 0.001% NP-40, 30 C). Conditions: tags: His6 N-terminal (pET28a); label: 5' 32P.
T1 sequence: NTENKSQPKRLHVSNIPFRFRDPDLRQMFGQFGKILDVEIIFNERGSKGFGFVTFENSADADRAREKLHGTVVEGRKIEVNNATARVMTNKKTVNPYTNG
Method in brief: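 These values rest on relative association constants, computed from read-count changes of each RNA species versus the control reaction and normalised to the cognate motif. Reads came from free RNA recovered by 8% native PAGE after purified RbFox RRM (wild type or mutant) at increasing concentrations was equilibrated for 10 min in 50 µL with 1 nM of a 5′-radiolabelled pool with 7 randomized nucleotides and DNA-annealed flanks.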
In the case of B1, the binding signal is reported as 0.00052 KA relative to UGCAUGU.
For B2, the binding signal was 0.000336 KA relative to UGCAUGU.
With B3 the binding signal was 0.0184 KA relative to UGCAUGU.
With B4 the binding signal was 0.0132 KA relative to UGCAUGU.
B5 was tested, and the binding signal was 0.0116 KA relative to UGCAUGU.
For B6, the binding signal was 0.0311 KA relative to UGCAUGU.
In the case of B7, the binding signal is reported as 0.00888 KA relative to UGCAUGU.
B8 was tested, and the binding signal was 0.00519 KA relative to UGCAUGU.
B9 was tested, and the binding signal was 0.00251 KA relative to UGCAUGU.
In the case of B10, the binding signal is reported as 0.00978 KA relative to UGCAUGU.
For B11, the binding signal was 0.0698 KA relative to UGCAUGU.
In the case of B12, the binding signal is reported as 0.018 KA relative to UGCAUGU.
With B13 the binding signal was 0.000304 KA relative to UGCAUGU.
For B14, the binding signal was 0.00379 KA relative to UGCAUGU.
With B15 the binding signal was 0.0217 KA relative to UGCAUGU.
B16 was tested, and the binding signal was 0.00858 KA relative to UGCAUGU.
B17 was tested, and the binding signal was 0.0051 KA relative to UGCAUGU.
B18 was tested, and the binding signal was 0.00203 KA relative to UGCAUGU.
B19 was tested, and the binding signal was 0.0183 KA relative to UGCAUGU.
In the case of B20, the binding signal is reported as 0.0182 KA relative to UGCAUGU.
